{
  "source": "the supplement of paper PMC9446081",
  "note": "Among all 39,000 compounds or so, about 220 (0.56%) showed activity. This is one part of the list.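 Note: static incubation at 37 °C against the wild-type strain, values averaged over two biological replicates.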",
  "data": [
    {"tested_on": "Escherichia coli K-12 BW25113", "test": "relative growth (OD600 normalised to plate interquartile mean) (fraction); higher = less growth inhibition, active = 0.2 or less", "conditions": "50 µM; LB; incubation time: overnight (16-24 h)", "values": [
      {"smiles": "NC(=O)c1c(N)c(C(N)=S)n2c1CCC2", "relative growth": "inactive: 1.02"},
      {"smiles": "C[C@H](CO)N1C[C@H](C)[C@H](CN(C)C(=O)Nc2ccc3c(c2)OCO3)Oc2ccc(NC(=O)CCN3CCOCC3)cc2CC1=O", "relative growth": "inactive: 1.03"},
      {"smiles": "O=C(NCCCN1CCOCC1)[C@H]1[C@H](CO)[C@H]2Cn3c(cccc3=O)[C@@H]1N2C(=O)NC1CCCC1", "relative growth": "inactive: 1"},
      {"smiles": "O=C(C[C@@H]1C[C@@H]2c3cc(NC(=O)c4ccc5c(c4)OCO5)ccc3O[C@@H]2[C@H](CO)O1)NCCN1CCCCC1", "relative growth": "inactive: 1.02"},
      {"smiles": "CC(C)NC(=O)Nc1cccc2c1O[C@H](CN(C)S(=O)(=O)c1ccc(F)cc1)[C@@H](C)CN([C@@H](C)CO)C2=O", "relative growth": "inactive: 1"},
      {"smiles": "C[C@@H]1CN([C@@H](C)CO)C(=O)c2cc(NC(=O)Nc3cccc4ccccc34)ccc2O[C@@H](C)CCCCO[C@H]1CN(C)S(=O)(=O)c1cccs1", "relative growth": "inactive: 1.06"},
      {"smiles": "C[C@H]1CC/C=C\\[C@H]2O[C@@]34C=CCN(c5ccc(Cl)cc5)C(=O)[C@H]3N(CCCO)C(=O)[C@]4(C)[C@@H]2C(=O)O1", "relative growth": "inactive: 0.978"},
      {"smiles": "CCCN(C)C[C@@H]1OCCCC[C@H](C)Oc2ccc(NC(=O)Nc3ccc(F)cc3)cc2C(=O)N([C@H](C)CO)C[C@@H]1C", "relative growth": "inactive: 0.997"},
      {"smiles": "CC(C)NC(=O)N(C)C[C@H]1Oc2ccc(NC(=O)CCC(F)(F)F)cc2C(=O)N([C@@H](C)CO)C[C@H]1C", "relative growth": "inactive: 1.02"},
      {"smiles": "COc1ccc(S(=O)(=O)N(C)C[C@@H]2Oc3ccc(NC(=O)Cn4cnnn4)cc3C(=O)N([C@H](C)CO)C[C@@H]2C)cc1", "relative growth": "inactive: 1.03"},
      {"smiles": "C[C@H]1CN([C@@H](C)CO)C(=O)c2cc(NS(=O)(=O)c3cn(C)cn3)ccc2O[C@@H]1CN(C)C(=O)NC1CCCCC1", "relative growth": "inactive: 1"},
      {"smiles": "CO[C@H]1/C=C\\C=C(/C)C(=O)NC2=CC(=O)C(NCCN(C)C)=C(C[C@@H](C)C[C@H](OC)[C@H](O)[C@@H](C)/C=C(\\C)[C@@H]1OC(N)=O)C2=O", "relative growth": "inactive: 1.01"},
      {"smiles": "Cc1ccccc1S(=O)(=O)N1C[C@H](O)COC[C@H]2O[C@H](CC(=O)NCCc3ccncc3)CC[C@@H]21", "relative growth": "inactive: 0.995"},
      {"smiles": "CC(=O)O[C@H]1C[C@@]2(C)[C@@H](C[C@@H](O)[C@H]3[C@@]4(C)CC[C@@H](O)[C@@H](C)[C@@H]4CC[C@@]32C)/C1=C(\\CCC=C(C)C)C(=O)O", "relative growth": "inactive: 0.97"},
      {"smiles": "CCSc1nc(=O)c(C)n[nH]1", "relative growth": "inactive: 0.962"},
      {"smiles": "C[C@@H]1CCCCO[C@H](CN(C)S(C)(=O)=O)[C@@H](C)CN([C@@H](C)CO)C(=O)c2cc(NS(=O)(=O)c3ccc(F)cc3)ccc2O1", "relative growth": "inactive: 0.989"},
      {"smiles": "C[C@H]1[C@H]([Si](C)(C)F)[C@@H](CC(=O)N(CCO)Cc2ccccc2)O[C@]12C(=O)N(c1ccccc1)c1ccccc12", "relative growth": "inactive: 1"},
      {"smiles": "Cc1noc(C)c1S(=O)(=O)N(C)C[C@@H]1Oc2ccc(NC(=O)Cn3cnnn3)cc2CC(=O)N([C@H](C)CO)C[C@H]1C", "relative growth": "inactive: 0.992"},
      {"smiles": "C[C@@H]1CN([C@@H](C)CO)C(=O)Cc2cc(NC(=O)Nc3cccc4ccccc34)ccc2O[C@@H]1CN(C)C(=O)NC1CCCCC1", "relative growth": "inactive: 1"},
      {"smiles": "CCCNC(=O)N1C[C@H](O)COC[C@H]2O[C@@H](CC(=O)NCCCN3CCOCC3)CC[C@@H]21", "relative growth": "inactive: 1.02"},
      {"smiles": "C[C@H]1CN([C@@H](C)CO)C(=O)Cc2cc(NC(=O)Nc3cccc4ccccc34)ccc2O[C@@H]1CN(C)C(=O)Nc1ccc(C(F)(F)F)cc1", "relative growth": "inactive: 0.854"},
      {"smiles": "O=C(Nc1cccc2cccnc12)[C@@H]1[C@H](c2cccc(Br)c2)CC(=O)N1C(=O)OCc1ccccc1", "relative growth": "inactive: 1.01"},
      {"smiles": "C[C@@H]1CCCCO[C@@H](CN(C)Cc2ccc(C(=O)O)cc2)[C@H](C)CN([C@@H](C)CO)C(=O)c2cc(NC(=O)NC3CCCCC3)ccc2O1", "relative growth": "inactive: 1.01"},
      {"smiles": "C[C@@H]1CN([C@@H](C)CO)C(=O)c2cc(C#CCN(C)C)cnc2O[C@@H]1CN(C)C(=O)CCN1CCCCC1", "relative growth": "inactive: 1.03"},
      {"smiles": "C[C@@H]1CN([C@@H](C)CO)C(=O)c2cc(NC(=O)CCN3CCOCC3)ccc2O[C@H]1CN(C)S(=O)(=O)c1ccc(F)cc1", "relative growth": "inactive: 0.93"},
      {"smiles": "COc1ccc(S(=O)(=O)Nc2ccc3c(c2)C(=O)N([C@H](C)CO)C[C@H](C)[C@H](CN(C)S(C)(=O)=O)O3)cc1", "relative growth": "inactive: 0.99"},
      {"smiles": "COc1ccc(S(=O)(=O)N(C)C[C@H]2Oc3c(NC(=O)C4CCOCC4)cccc3C(=O)N([C@H](C)CO)C[C@H]2C)cc1", "relative growth": "inactive: 0.921"},
      {"smiles": "COc1ccc(S(=O)(=O)N(C)C[C@@H]2Oc3ccc(NC(=O)CCCN(C)C)cc3C(=O)N([C@@H](C)CO)C[C@@H]2C)cc1", "relative growth": "inactive: 1.05"},
      {"smiles": "COc1ccc(S(=O)(=O)N(C)C[C@H]2Oc3c(NS(=O)(=O)c4cccs4)cccc3C(=O)N([C@H](C)CO)C[C@@H]2C)cc1", "relative growth": "inactive: 1.02"},
      {"smiles": "COc1ccc(S(=O)(=O)Nc2ccc3c(c2)CC(=O)N([C@@H](C)CO)C[C@H](C)[C@@H](CN(C)CC2CC2)O3)cc1", "relative growth": "inactive: 1.01"},
      {"smiles": "C[C@H](CO)N1C[C@H](C)[C@H](CN(C)S(=O)(=O)c2ccc(Cl)cc2)OCCCC[C@H](C)Oc2ccc(NC(=O)CCC(F)(F)F)cc2C1=O", "relative growth": "inactive: 1.05"},
      {"smiles": "O=C(C[C@@H]1CC[C@H]2[C@@H](COC[C@H](O)CN2S(=O)(=O)c2ccccc2)O1)N1CCOCC1", "relative growth": "inactive: 1.04"},
      {"smiles": "C[C@@H]1COC(=O)[C@@H](Cc2ccc(F)cc2)CC=CC[C@@H](CC(=O)N[C@@H](CO)Cc2ccccc2)C(=O)N1", "relative growth": "inactive: 0.998"},
      {"smiles": "Cc1ccc(S(=O)(=O)Nc2ccc3c(c2)C(=O)N([C@H](C)CO)C[C@H](C)[C@@H](CN(C)Cc2ccc(C(F)(F)F)cc2)OCCCC[C@@H](C)O3)cc1", "relative growth": "inactive: 1.03"},
      {"smiles": "COc1ccc([Si](C)(C)[C@H]2[C@H](CC(=O)N(CCO)Cc3ccccc3)O[C@@]3(C(=O)N(Cc4cccc(N5CCCCC5=O)c4)c4ccccc43)[C@@H]2C)cc1", "relative growth": "inactive: 0.992"},
      {"smiles": "C[C@@H]1CN([C@@H](C)CO)C(=O)c2cc(NC(=O)CCCCCC(=O)Nc3ccccc3N)ccc2O[C@@H](C)CCCCO[C@@H]1CN(C)CC1CCCCC1", "relative growth": "inactive: 0.946"},
      {"smiles": "COc1ccc(S(=O)(=O)N(C)C[C@@H]2Oc3ccc(NC(=O)C4CC4)cc3C(=O)N([C@@H](C)CO)C[C@H]2C)cc1", "relative growth": "inactive: 0.99"},
      {"smiles": "C[C@H](NC(=O)C[C@@H]1C=C[C@H](NC(=O)CN2CCOCC2)[C@@H](CO)O1)c1ccccc1", "relative growth": "inactive: 1.03"},
      {"smiles": "Cc1ccc(S(=O)(=O)Nc2ccc3c(c2)C(=O)N([C@@H](C)CO)C[C@@H](C)[C@H](CN(C)C(=O)NC2CCCCC2)OCCCC[C@H](C)O3)cc1", "relative growth": "inactive: 1.02"},
      {"smiles": "Cc1noc(C)c1NC(=O)Nc1ccc2c(c1)CC(=O)N([C@@H](C)CO)C[C@@H](C)[C@@H](CN(C)Cc1ccc(Cl)c(Cl)c1)O2", "relative growth": "inactive: 0.971"},
      {"smiles": "COCC(=O)N1C[C@]2(C1)CN([C@H](CO)c1[nH]c3cc(ccc3c12)OC)S(=O)(=O)C", "relative growth": "inactive: 1"},
      {"smiles": "Cc1noc(C)c1S(=O)(=O)Nc1ccc2c(c1)C(=O)N([C@@H](C)CO)C[C@@H](C)[C@H](CN(C)S(=O)(=O)c1ccc(F)cc1)O2", "relative growth": "inactive: 1.04"},
      {"smiles": "C[C@@H]1CN([C@@H](C)CO)C(=O)c2cc(NC(=O)Nc3cccc4ccccc34)ccc2O[C@H]1CN(C)S(=O)(=O)c1ccc(Cl)cc1", "relative growth": "inactive: 0.99"},
      {"smiles": "COc1ccc(NC(=O)N[C@H]2CC[C@H](CCNC(=O)CN3CCOCC3)O[C@@H]2CO)cc1", "relative growth": "inactive: 1"},
      {"smiles": "C[C@@H]1CN([C@@H](C)CO)C(=O)Cc2cc(NC(=O)Nc3ccc(C(F)(F)F)cc3)ccc2O[C@H]1CN(C)Cc1ccc(C(F)(F)F)cc1", "relative growth": "inactive: 1.04"},
      {"smiles": "C[C@@H]1CN([C@H](C)CO)C(=O)c2cccc(NS(C)(=O)=O)c2O[C@@H]1CN(C)Cc1ccc(C(=O)Nc2ccccc2N)cc1", "relative growth": "inactive: 0.989"},
      {"smiles": "C[C@H](CO)N1C[C@H](C)[C@H](CN(C)S(=O)(=O)c2cccc(C#N)c2)OCc2cnnn2CCCC1=O", "relative growth": "inactive: 0.963"},
      {"smiles": "COC[C@H]1CNN1C(=O)c1cc(C)oc1C", "relative growth": "inactive: 1.04"},
      {"smiles": "N[C@H]1[C@H](CCCCC(=O)O)SC[C@@H]1N", "relative growth": "inactive: 0.943"},
      {"smiles": "O=C(C[C@H]1C[C@H]2c3cc(NC(=O)NC4CCCC4)ccc3O[C@H]2[C@@H](CO)O1)NCCN1CCCCC1", "relative growth": "inactive: 0.997"},
      {"smiles": "COc1ccc(S(=O)(=O)Nc2ccc3c(c2)C(=O)N([C@H](C)CO)C[C@H](C)[C@H](CN(C)C(=O)c2ccccc2)OCCCC[C@@H](C)O3)cc1", "relative growth": "inactive: 0.984"},
      {"smiles": "C[C@@H]1CN([C@@H](C)CO)C(=O)c2cc(NC(=O)Nc3cccc4ccccc34)ccc2O[C@@H](C)CCCCO[C@@H]1CN(C)C(=O)c1ccccc1", "relative growth": "inactive: 1"},
      {"smiles": "C[C@H]1CN([C@@H](C)CO)C(=O)Cc2cc(NC(=O)Cn3cnnn3)ccc2O[C@@H]1CN(C)C(=O)Nc1cccc2ccccc12", "relative growth": "inactive: 0.974"},
      {"smiles": "COc1ccc(NC(=O)N(C)C[C@H]2Oc3ccc(NS(=O)(=O)c4cn(C)cn4)cc3CC(=O)N([C@@H](C)CO)C[C@@H]2C)cc1", "relative growth": "inactive: 1.01"},
      {"smiles": "COc1ccc(S(=O)(=O)N2C[C@@H](O)COC[C@@H]3O[C@@H](CC(=O)NCCCN4CCOCC4)CC[C@H]32)cc1", "relative growth": "inactive: 0.996"},
      {"smiles": "Cc1ccc(S(=O)(=O)N(C)C[C@@H]2Oc3cc(Br)ccc3S(=O)(=O)N([C@H](C)CO)C[C@@H]2C)cc1", "relative growth": "inactive: 1.04"},
      {"smiles": "C[C@@H]1CN([C@H](C)CO)C(=O)c2cc(NC(=O)Cn3cnnn3)ccc2O[C@H]1CN(C)Cc1ccc(C(=O)Nc2ccccc2N)cc1", "relative growth": "inactive: 0.984"}
    ]}
  ]
}
